Substitutions are numbered along the chain they refer to. Results are given in words; binding and its absence hold for the method and conditions named. For some assays here: Binding seen in cells or lysates may run through a third protein. Some results given as binding are weak or reduced against the parent protein; the word gives no strength. Tags and fused reporters may be left off the sequences shown.
Experiments:
[1] = molecular target: T1, MBP-Wss1 (wild type) (S. cerevisiae) (UniProt P38838); experiment: pull-down; CNBr-crosslinked MBP-Wss1 beads with lysates of CDC48-TAP cells transformed with Wss1 constructs; western blot; only the target purified
T1 sequence: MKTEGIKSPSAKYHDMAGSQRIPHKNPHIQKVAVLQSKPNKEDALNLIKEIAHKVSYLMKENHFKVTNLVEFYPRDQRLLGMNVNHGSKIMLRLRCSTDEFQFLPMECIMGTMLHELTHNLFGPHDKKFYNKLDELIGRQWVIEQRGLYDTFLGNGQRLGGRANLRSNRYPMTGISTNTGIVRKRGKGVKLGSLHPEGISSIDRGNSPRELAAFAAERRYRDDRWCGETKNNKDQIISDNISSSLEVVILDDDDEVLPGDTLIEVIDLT

The chains behind the UniProt entries cited, without tags or fusion partners.
UniProt P25694: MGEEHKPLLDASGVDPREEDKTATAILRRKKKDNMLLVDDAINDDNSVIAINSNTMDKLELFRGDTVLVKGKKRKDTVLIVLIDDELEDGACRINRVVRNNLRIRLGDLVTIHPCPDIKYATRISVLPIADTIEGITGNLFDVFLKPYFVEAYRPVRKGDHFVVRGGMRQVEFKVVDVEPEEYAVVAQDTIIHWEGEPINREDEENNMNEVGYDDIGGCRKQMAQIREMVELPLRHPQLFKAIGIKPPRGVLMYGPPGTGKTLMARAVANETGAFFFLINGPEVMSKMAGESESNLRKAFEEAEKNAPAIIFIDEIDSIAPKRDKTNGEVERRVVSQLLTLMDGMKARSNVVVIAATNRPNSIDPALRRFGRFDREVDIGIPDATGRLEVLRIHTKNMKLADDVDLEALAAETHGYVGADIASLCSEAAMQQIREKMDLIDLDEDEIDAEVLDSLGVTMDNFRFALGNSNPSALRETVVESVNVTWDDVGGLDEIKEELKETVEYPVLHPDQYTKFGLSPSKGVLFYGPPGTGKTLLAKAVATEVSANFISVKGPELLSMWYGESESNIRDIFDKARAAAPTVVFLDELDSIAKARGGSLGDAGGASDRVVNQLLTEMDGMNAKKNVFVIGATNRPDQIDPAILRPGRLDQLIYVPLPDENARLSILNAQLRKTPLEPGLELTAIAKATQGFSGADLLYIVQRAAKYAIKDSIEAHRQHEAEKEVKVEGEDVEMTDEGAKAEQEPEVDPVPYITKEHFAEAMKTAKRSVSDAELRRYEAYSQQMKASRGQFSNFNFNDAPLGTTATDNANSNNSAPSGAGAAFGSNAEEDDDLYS

[2] = molecular target: T2, MBP-Wss1 F2R (F152S, R218,219S) (S. cerevisiae) (UniProt P38838); experiment: pull-down; purified MBP-Wss1 proteins on amylose beads with purified Cdc48 or adaptor proteins; PAGE with Coomassie staining, western blot with α-His6, ImageJ; both purified
T2 sequence: T1 sequence with F152S, R218S, R219S

[3] = molecular target: T3, HA-Wss1 (wild type, expressed in yeast) (S. cerevisiae) (UniProt P38838); experiment: co-IP; HA-Wss1 constructs expressed from pYEPGAP-URA3 in yeast; lysates (150 mM NaCl, 50 mM Tris pH 7.4, 0.5% Triton X-100, 30 mM NEM) on anti-HA beads, 1 hr at 4°C; western blot; DOA1-FLAG cells (Figure 5B) or wss1Δ cells treated with 0.2 μg/ml 4-NQO (Figure 8C)
T3 sequence: T1 sequence

[4] = molecular target: T4, HA-Wss1 F2R (expressed in yeast) (S. cerevisiae) (UniProt P38838); experiment: as above
T4 sequence: T1 sequence with F152S, R218S, R219S

[5] = molecular target: T5, HA-Wss1 WLM* (expressed in yeast) (S. cerevisiae) (UniProt P38838); experiment: as above
T5 sequence: T1 sequence with H115N, E116K

With “Cdc48-TAP (from UniProt P25694 1-835) (enzyme)” the binding [1] was “binds”.
“GST-Cdc48 (full length) (from UniProt P25694 1-835) (enzyme)” was tested, and the binding [2] was “no binding”.
For “Cdc48 (endogenous) (from UniProt P25694 1-835) (enzyme)”, the binding [3] was “binds”, the binding [4] was “no binding” and the binding [5] was “binds”.

Source: article PMC4559962
